Measurements from the RNAGym collection of RNA variant scans (doi:10.7554/elife.90254).
Read counts are not given, so values of variants with three or more changes are uncertain.

B1: LINE1-mini (parent)
chain: GGCAGAGCUCAACACAGCGUGGCAAAGUGGCUGUGGCUAGACUGCC

Variants of: B1
Assay: self-cleavage, relative activity (ratio to wild type); higher = more cleavage; in vitro, sequencing; the parent is a self-cleaving ribozyme

Variant | self-cleavage
G7U U9C C13U A14G | 0.02
C8A A12U G35U | 0.1
C8A A11C A24U C31U | 0.02
C8A A11U G19A G33A | 0.01
G7U U9A C15A | 0.06
G7U U9A C15U | 0.07
G7U G19A G27U | 0.04
G7U U20G C37U C45G | 0.03
G7U U43A C45G | 0.06
C8A A12G G29A G36A | 0.05
G7U G22U A25U | 0.13
G7U U28A C42A | 0.02
G7U G27U G30U | 0.07
C8A A11U G27U G30C G35U C37U C42U | 0
G7U G19U G29A G36C | 0.04
G7U G17C A39C | 0.16
G7U G17C G29A G35C | 0.29
G7U G22U G29C | 0.04
G7U U9G C15U | 0.04
G7U G22A G29C | 0
C8A A11G C18G G21C C23U A24U A26C G30A | 0.02

Variant | self-cleavage
G7U G17A U28C A39G | 0.02
G7U U9G C15G G33U C42A | 0.03
G7U U9G U28C U32G G33U C37G C46U | 0.04
G7U G21A C45G | 0.45
G7U U20A A39G C46U | 0.02
G7U U20A G29A A39C C46A | 0.16
G7U G17C U32G | 0.1
C8A A12C U28C U34G | 0.03
G7U G29U G35A C42U | 0.03
G7U G27A U32G G36C | 0.23
G7U U9A A12G C46G | 0.07
G7U G33C G35A | 0.19
G7U G22C U28A C37A A39G C46G | 0.02
G7U G22C G29C | 0.03
G7U U20A G29U A41U U43A | 0.02
G7U G19C G22U G27C C37A | 0.01
G7U U9A A12U C18G G33A G40C | 0.02
G7U G35U C42A | 0.09
G7U G19C U28A G36C | 0.03
G7U U9G C13U G30A | 0.06
G7U U32C C42U | 0.3

Variant | self-cleavage
C8A A12G C37U G44U | 0.18
C8A A11U G36C U38G | 0
C8A A12U C13A C42A | 0.12
G7U U28C G29C C31G | 0
G7U U20A G30A | 0.01
G7U G29U G33A G36C | 0
G7U G19U U38G A41G | 0
C8A A12U C23U C45U | 0.27
C8A A11G A25C | 0.01
G7U G21C G33A | 0.08
C8A A12U G17U G21A A26C C31G | 0.41
C8A A11C A14C G44C | 0.01
C8A A12C G27C G40C | 0.07
G7U G29U G36A | 0.09
G7U G29U G36C | 0.11
G7U G27A G35A C46A | 0.11
G7U G19U G30A U32A | 0.17
G7U U20C C37A | 0.02
G7U G36C G40A | 0
G7U G19U U20G A26U G29A A39U U43C C46U | 0.06
C8A A11U G30A | 0.01

Variant | self-cleavage
C8A A11U G30C | 0.02
G7U U9G U32G G36A A41G | 0
G7U G19A G36A A39U | 0.06
G7U G17U A41U | 0.09
G7U U34A G40U | 0.08
G7U U9C G21U | 0.02
C8A A11U G30U G33U | 0.02
G7U G17U U28C G29C G40A | 0.16
G7U U20G C42G | 0.07
G7U U20C C42G | 0.05
G7U U20C C42A | 0.02
G7U G19U U28A U43A | 0.23
G7U U9A A14G G27C C45U | 0.01
C8A A11G G27C G40C | 0.02
G7U U9C U38G | 0
G7U U32C G35A | 0.03
G7U U9G G29U C37U A39C | 0.03
G7U G19C C23A A25C | 0.01
C8A A11C A24G G36A | 0.05
C8A A11C G19C U20A | 0.01
G7U G21U G29C C31A G40C A41U C46A | 0.06
